Experimental findings from patent US12037395 (IMMVIRA, dated 2024) are described below.

Assay [1] deals with T1, human PD-1 on PD-1 Effector Cell Line (Genscript, GS-J2/PD-1) (human, UniProt Q15116 25-288). Nature of the assay: cell-based or functional assay.
Assay [2] addresses T1, human PD-1 on PD-1 Effector Cell Line …. As to the kind of experiment: cell-based or functional assay. This is another data set of the same source.
For assay [3], the target named is T2, recombinant human PD-1-his (Sino biological, #10377-H08H) (human, UniProt Q15116 fragment).
T2 construct: Bought protein; also called Human PD-1-his protein; not shown: his tag
As to the kind of experiment: SPR (Biacore). Background: SPR reads the build-up and loss of mass on a sensor chip optically.

Assay [4] concerns the target T3, cynomolgus monkey PD-1-his protein (Acro biosystems, #PD-1-C5223) (cynomolgus monkey, UniProt B0LAJ3 25-170).
T3 construct: Bought protein; also called Cynomolgus PD-1; Cynomolgus PD1
T3 sequence (B0LAJ3 entry or part of it limits assumed): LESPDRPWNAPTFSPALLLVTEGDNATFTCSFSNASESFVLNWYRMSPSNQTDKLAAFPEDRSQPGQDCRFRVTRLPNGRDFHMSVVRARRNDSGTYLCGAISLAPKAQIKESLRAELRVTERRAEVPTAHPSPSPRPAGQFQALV
As to the kind of experiment: SPR (Biacore).

B1: Chimeric C1E1 antibody (antibody, human IgG1, kappa)
heavy: EVMLVESGGGLVKPGGSLKLSCAASGFTFSSYLMSWVRQTPEKRLEWVATISGGGGDTYFPDSVKGRFTISRDNVKNNLYLQMSSLRSEDTALYYCVRFGGAGYYWYFDVWGAGTTVTVSS[human IgG1 constant region not printed]
light: DIVLTQSPASLAVSLGQRATISCRASKSVDDSGISFMHWFQQKPGQPPKLLIYAASNQGSGVPARFRGSGSGTDFSLNIHPMEEDDTAMYFCHQTKEVPWTFGGGTKLEIKRTVAAPSVFIFPPSDEQLKSGTASVVCLLNNFYPREAKVQWKVDNALQSGNSQESVTEQDSKDSTYSLSSTLTLSKADYEKHKVYACEVTHQGLSSPVTKSFNRGEC
notes: Mouse C1E1 variable domains on human IgG1/kappa constant regions; also called chC1E1
By Kd is commonly meant the concentration at which binding is half-saturated. In the case of B1, the “Cell-based functional reporter assay (IC50, nM)” value in assay [1] turned out to be 8.53 nM. Further, the “Cell-based reporter assay (EC50, nM)” value in assay [2] was determined as 8.53 nM. Moreover, the Kd in assay [3] came to 0.881 nM; in assay [4], 0.845 nM.
